# According to the supplement of paper PMC8728848:
# This is one part of the list.
# Columns and labels:
# Assay in all cases: glycan array binding signal (z-score within array); higher = stronger binding
# Settings in all cases: glycan notation: IUPAC condensed, linker removed
# [1] = molecular target: GalNAc(a1-3)GalNAc(b1-3)Gal(a1-4)Gal(b1-4)GlcNAc
# In short: (§1)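 Glycan array data came from 3228 arrays in the Consortium for Functional Glycomics database, and only arrays with an available protein sequence were kept. Glycan names were put into IUPAC-condensed notation, and columns mapping to the same glycan were averaged. The binding signal is a within-array Z-score, averaged across arrays of one protein sequence run at different concentrations or buffers and across linkers. A negative Z-score can be read as non-binding.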
# [2] = molecular target: GalNAc(b1-3)Gal
# In short: as §1
# [3] = molecular target: GalNAc(b1-3)Gal(a1-4)Gal(b1-4)GlcNAc
# In short: as §1
# [4] = molecular target: GalNAc(b1-3)Gal(a1-4)Gal(b1-4)GlcNAc(b1-3)Gal(b1-4)Glc
# In short: as §1
# [5] = molecular target: GalNAc(b1-3)Gal(a1-6)Gal(b1-4)Glc
# In short: as §1
# [6] = molecular target: GalNAc(b1-3)GalNAc
# In short: as §1
# [7] = molecular target: GalNAc(b1-3)GlcNAc
# In short: as §1
# [8] = molecular target: GalNAc(b1-4)Gal(b1-4)Glc
# In short: as §1
# [9] = molecular target: GalNAc(b1-4)GlcNAc
# In short: as §1
# [10] = molecular target: GalNAc(b1-4)GlcNAc(b1-2)Man
# In short: as §1
# [11] = molecular target: GalNAc(b1-4)GlcNAc(b1-2)Man(a1-3)[GalNAc(b1-4)GlcNAc(b1-2)Man(a1-6)]Man(b1-4)GlcNAc(b1-4)GlcNAc
# In short: as §1
# [12] = molecular target: GalNAc(b1-4)GlcNAc(b1-3)GalNAc(b1-4)GlcNAc
# In short: as §1
# [13] = molecular target: GalNAc(b1-4)GlcNAc6S
# In short: as §1
# [14] = molecular target: GalNAc(b1-6)GalNAc
# In short: as §1
# [15] = molecular target: GalNAc3S(b1-4)GlcNAc
# In short: as §1
# [16] = molecular target: GalNAc3S(b1-4)GlcNAc3S
# In short: as §1
# [17] = molecular target: GalNAc3S(b1-4)[Fuc(a1-3)]GlcNAc
# In short: as §1
# [18] = molecular target: GalNAc4S6S(b1-4)GlcNAc
# In short: as §1
# [19] = molecular target: GalNAc6S(b1-4)GlcNAc
# In short: as §1
# [20] = molecular target: Glc(a1-4)Glc
# In short: as §1
# [21] = molecular target: Glc(a1-4)Glc(a1-4)Glc(a1-4)Glc
# In short: as §1
# [22] = molecular target: Glc(a1-6)Glc(a1-6)Glc
# In short: as §1
# [23] = molecular target: Glc(a1-6)Glc(a1-6)Glc(a1-6)Glc
# In short: as §1
# [24] = molecular target: Glc(b1-4)Glc
# In short: as §1
# [25] = molecular target: Glc(b1-6)Glc
# In short: as §1
# [26] = molecular target: GlcA(b1-3)Gal
# In short: as §1
# [27] = molecular target: GlcA(b1-3)GlcNAc
# In short: as §1
# [28] = molecular target: GlcA(b1-6)Gal
# In short: as §1
# [29] = molecular target: GlcA3S(b1-3)Gal(b1-4)GlcNAc(b1-2)Man
# In short: as §1
# [30] = molecular target: GlcA3S(b1-3)Gal(b1-4)GlcNAc(b1-3)Gal(b1-4)Glc
# In short: as §1
# [31] = molecular target: GlcNAc(a1-3)Gal(b1-4)GlcNAc
# In short: as §1
# [32] = molecular target: GlcNAc(a1-4)Gal(b1-3)GlcNAc
# In short: as §1
# [33] = molecular target: GlcNAc(a1-4)Gal(b1-4)GalNAc
# In short: as §1
# [34] = molecular target: GlcNAc(a1-4)Gal(b1-4)GlcNAc
# In short: as §1
# [35] = molecular target: GlcNAc(a1-4)Gal(b1-4)GlcNAc(b1-3)Gal(b1-4)Glc
# In short: as §1
# [36] = molecular target: GlcNAc(a1-4)Gal(b1-4)GlcNAc(b1-3)Gal(b1-4)GlcNAc
# In short: as §1
# [37] = molecular target: GlcNAc(a1-4)Gal(b1-4)GlcNAc(b1-3)Gal(b1-4)GlcNAc(b1-3)Gal(b1-4)GlcNAc
# In short: as §1
# [38] = molecular target: GlcNAc(a1-4)Gal(b1-4)GlcNAc(b1-3)Gal(b1-4)[Fuc(a1-3)]GlcNAc(b1-3)Gal(b1-4)[Fuc(a1-3)]GlcNAc
# In short: as §1
# [39] = molecular target: GlcNAc(a1-6)Gal(b1-4)GlcNAc
# In short: as §1
# [40] = molecular target: GlcNAc(b1-2)Gal(b1-3)GalNAc
# In short: as §1
# [41] = molecular target: GlcNAc(b1-2)Gal(b1-3)GlcNAc
# In short: as §1
# [42] = molecular target: GlcNAc(b1-2)Man(a1-3)[GlcNAc(b1-2)Man(a1-6)]Man(b1-4)GlcNAc(b1-4)GlcNAc
# In short: as §1
# [43] = molecular target: GlcNAc(b1-2)Man(a1-3)[GlcNAc(b1-2)Man(a1-6)]Man(b1-4)GlcNAc(b1-4)[Fuc(a1-6)]GlcNAc
# In short: as §1
# [44] = molecular target: GlcNAc(b1-2)Man(a1-3)[GlcNAc(b1-4)][GlcNAc(b1-2)Man(a1-6)]Man(b1-4)GlcNAc(b1-4)GlcNAc
# In short: as §1
# [45] = molecular target: GlcNAc(b1-2)Man(a1-3)[GlcNAc(b1-4)][GlcNAc(b1-2)Man(a1-6)]Man(b1-4)GlcNAc(b1-4)[Fuc(a1-6)]GlcNAc
# In short: as §1
binder,measurement,setting,value
"OVGAL11 (Ovis aries), AAF64320 (protein) MDSLPNPYLQSVSLTVCYMVKIKANLLSAFGKNPELQVDFGTGTGQGGNIPFRFWYCDGMVVMNTFTDGSWQKEEKVLTDAFVPGQPFELQFLVLEKEYQVFVKNKPICQFAHRLPLQSVKMLDVRGDIVLTSVDTL",glycan array binding signal (z-score),[1],-0.056
same,glycan array binding signal (z-score),[2],-0.128
same,glycan array binding signal (z-score),[3],-0.18
same,glycan array binding signal (z-score),[4],-0.092
same,glycan array binding signal (z-score),[5],-0.08
same,glycan array binding signal (z-score),[6],-0.082
same,glycan array binding signal (z-score),[7],-0.086
same,glycan array binding signal (z-score),[8],-0.071
same,glycan array binding signal (z-score),[9],-0.161
same,glycan array binding signal (z-score),[10],-0.134
same,glycan array binding signal (z-score),[11],0.024
same,glycan array binding signal (z-score),[12],-0.099
same,glycan array binding signal (z-score),[13],-0.038
same,glycan array binding signal (z-score),[14],-0.114
same,glycan array binding signal (z-score),[15],-0.102
same,glycan array binding signal (z-score),[16],-0.092
same,glycan array binding signal (z-score),[17],-0.109
same,glycan array binding signal (z-score),[18],-0.069
same,glycan array binding signal (z-score),[19],-0.057
same,glycan array binding signal (z-score),[20],0.241
same,glycan array binding signal (z-score),[21],-0.094
same,glycan array binding signal (z-score),[22],-0.089
same,glycan array binding signal (z-score),[23],0.012
same,glycan array binding signal (z-score),[24],-0.12
same,glycan array binding signal (z-score),[25],0.568
same,glycan array binding signal (z-score),[26],-0.077
same,glycan array binding signal (z-score),[27],-0.12
same,glycan array binding signal (z-score),[28],0.376
same,glycan array binding signal (z-score),[29],-0.095
same,glycan array binding signal (z-score),[30],-0.081
same,glycan array binding signal (z-score),[31],-0.18
same,glycan array binding signal (z-score),[32],-0.114
same,glycan array binding signal (z-score),[33],-0.091
same,glycan array binding signal (z-score),[34],-0.112
same,glycan array binding signal (z-score),[35],-0.114
same,glycan array binding signal (z-score),[36],-0.089
same,glycan array binding signal (z-score),[37],-0.09
same,glycan array binding signal (z-score),[38],-0.096
same,glycan array binding signal (z-score),[39],-0.208
same,glycan array binding signal (z-score),[40],-0.088
same,glycan array binding signal (z-score),[41],-0.199
same,glycan array binding signal (z-score),[42],-0.107
same,glycan array binding signal (z-score),[43],-0.067
same,glycan array binding signal (z-score),[44],-0.102
same,glycan array binding signal (z-score),[45],-0.083
